Experimental data reported in publication PMC12135187, “A role for pH dynamics regulating transcription factor DNA-binding selectivity”.
Some of the results follow.

Each sequence was assayed against T1, FOXC2 DBD WT (UniProt Q99958 72-172) (assay: SELEX-seq (GST pull-down, four rounds, 16-nt random library); pH 7.0; 20 mM HEPES, 140 mM KCl, 0.05 mM TCEP-HCl, pH 7.0, room temperature, 30 min; 2.5 uM GST-FOXC2 DBD, 0.25 uM DNA library; high values mean tight binding). Settings: protein: recombinant; tags: N-terminal GST (pGEX-6P-2); dsDNA, one strand shown.
T1 sequence: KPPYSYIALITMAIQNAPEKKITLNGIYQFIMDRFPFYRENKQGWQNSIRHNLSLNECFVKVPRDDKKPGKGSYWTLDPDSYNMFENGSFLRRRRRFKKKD
Summary of the method: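 GST-tagged FOXC2 DNA-binding domain (E. coli-expressed, glutathione-purified) was incubated with a DNA library carrying a 16 bp randomized region, at 0.25 μM DNA and 2.5 μM protein, for 30 min at RT in 20 mM HEPES, 140 mM KCl, 0.05 mM TCEP–HCl, pH 7. Complexes were captured on glutathione Sepharose beads, washed, heat-eluted and PCR-amplified over four rounds. Initial and selected libraries were Illumina MiniSeq sequenced. Relative enrichment came from the Bioconductor SELEX R package.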
Work on ATAACC yielded a binding signal of 0.406 relative enrichment.
TATAAA showed a binding signal of 0.283 relative enrichment.
TTCACT gave a binding signal of 0.426 relative enrichment.
With ATTCCG the binding signal was 0.485 relative enrichment.
AAGTCA showed a binding signal of 0.436 relative enrichment.
CCTGTG showed a binding signal of 0.491 relative enrichment.
TCTTGA showed a binding signal of 0.438 relative enrichment.
With ACTTGA the binding signal was 0.341 relative enrichment.
AATGTG gave a binding signal of 0.373 relative enrichment.
GATCTA showed a binding signal of 0.537 relative enrichment.
AGAAAT gave a binding signal of 0.419 relative enrichment.
CGTCTA showed a binding signal of 0.644 relative enrichment.
Work on TTCACA yielded a binding signal of 0.27 relative enrichment.
For AAGCTG, the binding signal was 0.325 relative enrichment.
GTATCA showed a binding signal of 0.372 relative enrichment.
GTATAA showed a binding signal of 0.285 relative enrichment.
Sequence TCATAC has a binding signal of 0.381 relative enrichment.
AAGCCA showed a binding signal of 0.413 relative enrichment.
CACCGT gave a binding signal of 0.539 relative enrichment.
AATTCG was tested, and the binding signal was 0.391 relative enrichment.
AAACTT gave a binding signal of 0.277 relative enrichment.
In the case of CAACCA, the binding signal was 0.261 relative enrichment.
CCAAAA showed a binding signal of 0.344 relative enrichment.
With ACAGCT the binding signal was 0.309 relative enrichment.
ATAAAC was tested, and the binding signal was 1 relative enrichment.
ATCCTG showed a binding signal of 0.428 relative enrichment.
For CCTATA, the binding signal was 0.569 relative enrichment.
In the case of TACCCT, the binding signal was 0.504 relative enrichment.
For CAATAA, the binding signal was 0.513 relative enrichment.
Work on ATCGCT yielded a binding signal of 0.518 relative enrichment.
For CTTTTC, the binding signal was 0.422 relative enrichment.
CAAATA gave a binding signal of 0.707 relative enrichment.
With ACTAGT the binding signal was 0.444 relative enrichment.
Sequence TACGTA has a binding signal of 0.539 relative enrichment.
TACTAC showed a binding signal of 0.438 relative enrichment.
AATCGT gave a binding signal of 0.337 relative enrichment.
For AAGTAT, the binding signal was 0.367 relative enrichment.
In the case of CAGCAT, the binding signal was 0.356 relative enrichment.
AAAAAC gave a binding signal of 0.276 relative enrichment.
With GGACAA the binding signal was 0.265 relative enrichment.
AATAAG was tested, and the binding signal was 0.686 relative enrichment.
AAAATC gave a binding signal of 0.32 relative enrichment.
Work on GCTCAA yielded a binding signal of 0.305 relative enrichment.
In the case of CATCAA, the binding signal was 0.4 relative enrichment.
In the case of TCTCTT, the binding signal was 0.407 relative enrichment.
In the case of CGCAAT, the binding signal was 0.294 relative enrichment.
CATACG was tested, and the binding signal was 0.448 relative enrichment.
In the case of CTAATC, the binding signal was 0.454 relative enrichment.
With AAAATG the binding signal was 0.205 relative enrichment.
AGGCAA showed a binding signal of 0.341 relative enrichment.
ACATCG gave a binding signal of 0.521 relative enrichment.
For TTACCG, the binding signal was 0.42 relative enrichment.
With ACACGG the binding signal was 0.442 relative enrichment.
Work on AATTCT yielded a binding signal of 0.354 relative enrichment.
Sequence CATCTA has a binding signal of 0.42 relative enrichment.
CAACGC gave a binding signal of 0.322 relative enrichment.
AGGTTG was tested, and the binding signal was 0.313 relative enrichment.
For AATACG, the binding signal was 0.61 relative enrichment.
With ATCTAC the binding signal was 0.461 relative enrichment.
For CAAAGC, the binding signal was 0.325 relative enrichment.
AGCTAA gave a binding signal of 0.285 relative enrichment.
Sequence ACTATG has a binding signal of 0.393 relative enrichment.
Work on ATAGCC yielded a binding signal of 0.391 relative enrichment.
In the case of ATCGAT, the binding signal was 0.389 relative enrichment.
Sequence CCTAGT has a binding signal of 0.64 relative enrichment.
In the case of AATTAT, the binding signal was 0.268 relative enrichment.
ATCCTT was tested, and the binding signal was 0.401 relative enrichment.
AGCTTA was tested, and the binding signal was 0.423 relative enrichment.
For CGCATT, the binding signal was 0.382 relative enrichment.
Sequence ATTCGC has a binding signal of 0.47 relative enrichment.
AATCAC was tested, and the binding signal was 0.366 relative enrichment.
With AACGCT the binding signal was 0.345 relative enrichment.
With ACGTTA the binding signal was 0.263 relative enrichment.
CAGTAA was tested, and the binding signal was 0.415 relative enrichment.
In the case of AGCAAT, the binding signal was 0.405 relative enrichment.
Sequence CGCTTT has a binding signal of 0.276 relative enrichment.
With CATCTC the binding signal was 0.642 relative enrichment.
Work on ATGCTA yielded a binding signal of 0.343 relative enrichment.
GCGTAA was tested, and the binding signal was 0.422 relative enrichment.
With CACAAG the binding signal was 0.295 relative enrichment.
For ATATGA, the binding signal was 0.356 relative enrichment.
Sequence TTGCAA has a binding signal of 0.353 relative enrichment.
Sequence GCTTAC has a binding signal of 0.467 relative enrichment.
With CACCAT the binding signal was 0.56 relative enrichment.
GTTAAC showed a binding signal of 0.267 relative enrichment.
Work on CGGTTA yielded a binding signal of 0.262 relative enrichment.
ACTTAA showed a binding signal of 0.302 relative enrichment.
With CATTTA the binding signal was 0.393 relative enrichment.
For ATCAAA, the binding signal was 0.322 relative enrichment.
Work on AAGAGT yielded a binding signal of 0.371 relative enrichment.
AGTATA gave a binding signal of 0.29 relative enrichment.
ATTGAA gave a binding signal of 0.446 relative enrichment.
In the case of ATACAG, the binding signal was 0.285 relative enrichment.
AATGCA was tested, and the binding signal was 0.391 relative enrichment.
Work on AACGAA yielded a binding signal of 0.281 relative enrichment.
Sequence AGACTA has a binding signal of 0.502 relative enrichment.
ACCCAA gave a binding signal of 0.434 relative enrichment.
With CTACGT the binding signal was 0.554 relative enrichment.
In the case of AAGCTA, the binding signal was 0.297 relative enrichment.
For ACAGGT, the binding signal was 0.428 relative enrichment.
Work on CTGCAT yielded a binding signal of 0.524 relative enrichment.
In the case of AGTACA, the binding signal was 0.385 relative enrichment.
In the case of TACTGA, the binding signal was 0.461 relative enrichment.
AGATTA showed a binding signal of 0.329 relative enrichment.
In the case of AAAGAC, the binding signal was 0.309 relative enrichment.
Sequence GCTTAA has a binding signal of 0.347 relative enrichment.
For TACATA, the binding signal was 0.312 relative enrichment.
With ATTCCA the binding signal was 0.428 relative enrichment.
With CAGATA the binding signal was 0.389 relative enrichment.
In the case of TACGCA, the binding signal was 0.486 relative enrichment.
CTCTCT gave a binding signal of 0.618 relative enrichment.
CCTCTA showed a binding signal of 0.483 relative enrichment.
ATCGCA showed a binding signal of 0.464 relative enrichment.
With AAACGC the binding signal was 0.351 relative enrichment.
GTTAAA was tested, and the binding signal was 0.356 relative enrichment.
GCTACA gave a binding signal of 0.348 relative enrichment.
Work on AAATCA yielded a binding signal of 0.34 relative enrichment.
With AGCAAG the binding signal was 0.404 relative enrichment.
With TAAGAA the binding signal was 0.346 relative enrichment.
With AAAAAT the binding signal was 0.241 relative enrichment.
GTTCTA gave a binding signal of 0.454 relative enrichment.
Work on AAAAAG yielded a binding signal of 0.29 relative enrichment.
Sequence ACTTAT has a binding signal of 0.389 relative enrichment.
Work on AACATG yielded a binding signal of 0.351 relative enrichment.
Work on GACTAA yielded a binding signal of 0.469 relative enrichment.
GAACTA gave a binding signal of 0.419 relative enrichment.
With CATAAA the binding signal was 0.596 relative enrichment.
Sequence TACCTC has a binding signal of 0.625 relative enrichment.
For CAGTCT, the binding signal was 0.627 relative enrichment.
With ACCGTA the binding signal was 0.478 relative enrichment.
TTCCGT was tested, and the binding signal was 0.616 relative enrichment.
Work on AAAGAT yielded a binding signal of 0.356 relative enrichment.
AGTACT gave a binding signal of 0.668 relative enrichment.
Work on CTTTGA yielded a binding signal of 0.338 relative enrichment.
CTCATG was tested, and the binding signal was 0.568 relative enrichment.
With AAACCC the binding signal was 0.354 relative enrichment.
Sequence AACCGT has a binding signal of 0.374 relative enrichment.
In the case of GTCCAA, the binding signal was 0.313 relative enrichment.
GTTGAA gave a binding signal of 0.32 relative enrichment.
GTGTAA was tested, and the binding signal was 0.38 relative enrichment.
For GACAAC, the binding signal was 0.26 relative enrichment.
In the case of TACCTG, the binding signal was 0.463 relative enrichment.
With ACATAA the binding signal was 0.45 relative enrichment.
TCTGTG was tested, and the binding signal was 0.32 relative enrichment.
CAAGCG gave a binding signal of 0.437 relative enrichment.
For ATAAGC, the binding signal was 0.803 relative enrichment.
ATGTTG was tested, and the binding signal was 0.379 relative enrichment.
TCACTT was tested, and the binding signal was 0.45 relative enrichment.
ATGGTA gave a binding signal of 0.499 relative enrichment.
In the case of CAGAAA, the binding signal was 0.321 relative enrichment.
GGATTA gave a binding signal of 0.375 relative enrichment.
Sequence ACAGTA has a binding signal of 0.415 relative enrichment.
CGTTAA showed a binding signal of 0.239 relative enrichment.
With ATCGTA the binding signal was 0.43 relative enrichment.
For CTGTTA, the binding signal was 0.238 relative enrichment.
GATCTT showed a binding signal of 0.497 relative enrichment.
Sequence TCTGCT has a binding signal of 0.471 relative enrichment.
For TATACA, the binding signal was 0.505 relative enrichment.
GTTCTT was tested, and the binding signal was 0.28 relative enrichment.
Sequence ACTAGC has a binding signal of 0.492 relative enrichment.
AAAGTA showed a binding signal of 0.281 relative enrichment.
Work on CTCCAA yielded a binding signal of 0.387 relative enrichment.
Work on CTGTCA yielded a binding signal of 0.358 relative enrichment.
AACTAG gave a binding signal of 0.393 relative enrichment.
For CCTCTT, the binding signal was 0.521 relative enrichment.
AACGTT was tested, and the binding signal was 0.324 relative enrichment.
For CAACCC, the binding signal was 0.391 relative enrichment.
Work on TCGCAA yielded a binding signal of 0.344 relative enrichment.
ACACTG was tested, and the binding signal was 0.342 relative enrichment.
In the case of ACCTAC, the binding signal was 0.532 relative enrichment.
With ACATTG the binding signal was 0.244 relative enrichment.
Sequence AGTAAA has a binding signal of 0.506 relative enrichment.
Work on TCCATG yielded a binding signal of 0.573 relative enrichment.
With ATCCAA the binding signal was 0.333 relative enrichment.
In the case of GTCAAA, the binding signal was 0.326 relative enrichment.
With CATTGC the binding signal was 0.363 relative enrichment.
TCCATA gave a binding signal of 0.385 relative enrichment.
With TACAGA the binding signal was 0.389 relative enrichment.
Sequence AATACA has a binding signal of 0.419 relative enrichment.
With GACACA the binding signal was 0.296 relative enrichment.
AACTAA showed a binding signal of 0.338 relative enrichment.
With CCACTA the binding signal was 0.55 relative enrichment.
In the case of ATGTAG, the binding signal was 0.407 relative enrichment.
GTTCGT was tested, and the binding signal was 0.328 relative enrichment.
In the case of TAACGA, the binding signal was 0.303 relative enrichment.
For CTTTGC, the binding signal was 0.372 relative enrichment.
TCCTTA gave a binding signal of 0.404 relative enrichment.
Work on AAGACT yielded a binding signal of 0.468 relative enrichment.
ACAAGA was tested, and the binding signal was 0.322 relative enrichment.
Work on CTGTCT yielded a binding signal of 0.428 relative enrichment.
Sequence GCTAAA has a binding signal of 0.291 relative enrichment.
With AATAGG the binding signal was 0.428 relative enrichment.
For AACGTG, the binding signal was 0.299 relative enrichment.
CTAAAA gave a binding signal of 0.267 relative enrichment.
AGAATC showed a binding signal of 0.596 relative enrichment.
In the case of CCTCAA, the binding signal was 0.33 relative enrichment.
